From the supplement of paper PMC4967469

Tests used:
Experiment in all cases: Viability of human cancer cell lines after 72 h of drug (GDSC screen)
[1] = compound: CC(=O)O[C@@]12CO[C@@H]1C[C@H](O)[C@@]1(C)C(=O)[C@H](O)C3=C(C)[C@@H](OC(=O)[C@H](O)[C@@H](NC(=O)OC(C)(C)C)c4ccccc4)C[C@@](O)([C@@H](OC(=O)c4ccccc4)[C@H]21)C3(C)C [Docetaxel]; settings: top dose 0.0125 µM
Protocol: (§1)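 Human cancer cell lines in 384-well plates, medium with 10% serum, drug for 72 h over a 256-fold dose range (nine 2-fold or five 4-fold steps up to the top dose). Adherent lines were fixed and stained with the nucleic acid dye Syto60, suspension lines read with resazurin; signal relative to control wells, capped at 0 and 100%. One two-parameter sigmoid per drug and line, fitted in a mixed model over all curves with the slope shared within a line.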

[2] = compound: CC1(C)CNc2cc(NC(=O)c3cccnc3NCc3ccncc3)ccc21 [AMG-706]; settings: top dose 2 µM; top dose inferred
Protocol: as §1

[3] = compound: CC1=C2C[C@H]3[C@@H](CC=C4C[C@@H](O)CC[C@@]43C)[C@@H]2CC[C@]12O[C@@H]1C[C@H](C)CN[C@H]1[C@H]2C [Cyclopamine]; settings: top dose 16 µM; top dose inferred
Protocol: as §1

[4] = compound: CCOc1nc(NC(=O)Cc2cc(OC)ccc2OC)cc(N)c1C#N [JNK Inhibitor VIII]; settings: top dose 10 µM; top dose inferred
Protocol: as §1

[5] = compound: CN1CCN(c2ccc([N+](=O)[O-])c3no[n+]([O-])c23)CC1 [NSC-207895]; settings: top dose 20 µM; top dose inferred
Protocol: as §1

[6] = compound: COC(=O)[C@H](CCSC)NC(=O)c1ccc(NC[C@@H](N)CS)cc1-c1ccccc1 [FTI-277]; settings: top dose 1.024 µM; top dose inferred
Protocol: as §1

[7] = compound: COCC[n+]1c2c(n(Cc3cnccn3)c1C)C(=O)c1ccccc1C2=O [YM155]; settings: top dose 5.12 µM
Protocol: as §1

[8] = compound: C[C@]1(O)C[C@@H](c2nc(-c3ccc4ccc(-c5ccccc5)nc4c3)c3c(N)nccn32)C1 [OSI-906]; settings: top dose 2.56 µM; top dose inferred
Protocol: as §1

[9] = compound: Cc1[nH]c(/C=C2\C(=O)Nc3ccc(S(=O)(=O)Cc4c(Cl)cccc4Cl)cc32)c(C)c1C(=O)N1CCC[C@@H]1CN1CCCC1 [PHA-665752]; settings: top dose 2 µM
Protocol: as §1

[10] = compound: Cc1ccc(C(=O)N(CCCN)[C@@H](c2nc3cc(Cl)ccc3c(=O)n2Cc2ccccc2)C(C)C)cc1 [SB-715992]; settings: top dose 0.128 µM; top dose inferred
Protocol: as §1

[11] = compound: Cc1sc2c(c1C)C(c1ccc(Cl)cc1)=N[C@@H](CC(=O)OC(C)(C)C)c1nnc(C)n1-2 [JQ1]
Protocol: as §1

[12] = compound: O=C(/C=C/c1cccc(S(=O)(=O)Nc2ccccc2)c1)NO [Belinostat]; settings: top dose 20 µM; top dose inferred
Protocol: as §1

[13] = compound: OCCCNc1cc(-c2ccnc(Nc3cccc(Cl)c3)n2)ccn1 [CGP-60474]; settings: top dose 0.256 µM; top dose inferred
Protocol: as §1

[14] = compound: c1ccc2c(CCNc3ccc(Nc4ccncc4)cc3)c[nH]c2c1 [JNJ-26854165]; settings: top dose 10 µM
Protocol: as §1

[15] = compound: COc1cc(N2CCC(N3CCN(C)CC3)CC2)ccc1Nc1ncc(Cl)c(Nc2ccccc2S(=O)(=O)C(C)C)n1 [NVP-TAE684]; settings: top dose 2 µM
Protocol: as §1

[16] = top dose 1 µM, screen: GDSC drug entry 1218, top dose inferred
[17] = top dose 2.56 µM, screen: GDSC drug entry 163

Row | Cell Line | AUC [1] | IC50 [1] | AUC [2] | IC50 [2] | AUC [3] | IC50 [3] | AUC [4] | IC50 [4] | AUC [5] | IC50 [5] | AUC [6] | IC50 [6] | AUC [7] | IC50 [7] | AUC [8] | IC50 [8] | AUC [9] | IC50 [9] | AUC [10] | IC50 [10] | AUC [11, 16] | IC50 [11, 16] | AUC [11, 17] | IC50 [11, 17] | AUC [12] | IC50 [12] | AUC [13] | IC50 [13] | AUC [14] | IC50 [14] | AUC [15] | IC50 [15]
1 | NCI-H211 (small cell lung carcinoma, adherent) | 0.905 | > 12.5 nM | 0.974 | > 2000 nM | 0.961 | > 16000 nM | 0.979 | > 10000 nM | 0.744 | 6090 nM | 0.979 | > 1020 nM | 0.026 | < 20 nM | 0.893 | > 2560 nM | 0.98 | > 2000 nM | 0.615 | 16.4 nM | 0.859 | 796 nM | 0.724 | 676 nM | 0.142 | 99.5 nM | 0.856 | 198 nM | 0.987 | > 10000 nM | – | –
2 | NCI-H1770 (non-small cell lung carcinoma, suspension) | 0.963 | > 12.5 nM | 0.992 | > 2000 nM | 0.981 | > 16000 nM | 0.991 | > 10000 nM | 0.991 | > 20000 nM | 0.988 | > 1020 nM | 0.273 | 79.8 nM | 0.805 | 1100 nM | 0.907 | > 2000 nM | 0.917 | > 128 nM | 0.992 | > 1000 nM | 0.765 | 829 nM | 0.469 | 1040 nM | 0.891 | 234 nM | 0.992 | > 10000 nM | – | –
3 | NCI-SNU-5 (stomach, suspension) | 0.81 | 6.69 nM | 0.987 | > 2000 nM | 0.989 | > 16000 nM | 0.986 | > 10000 nM | 0.988 | > 20000 nM | 0.988 | > 1020 nM | 0.767 | 1930 nM | 0.989 | > 2560 nM | 0.366 | 52.9 nM | 0.945 | > 128 nM | 0.979 | > 1000 nM | 0.973 | > 2560 nM | 0.753 | 6750 nM | 0.858 | 215 nM | 0.938 | > 10000 nM | – | –
4 | NTERA-2 cl.D1 (testis, adherent) | – | – | – | – | 0.869 | 14600 nM | – | – | 0.587 | 2160 nM | 0.972 | > 1020 nM | 0.024 | < 20 nM | 0.852 | 1950 nM | 0.972 | > 2000 nM | 0.978 | > 128 nM | 0.971 | > 1000 nM | 0.382 | 76.1 nM | 0.341 | 453 nM | 0.647 | 40.7 nM | 0.89 | > 10000 nM | 0.63 | 284 nM
5 | OCUB-M (breast, adherent) | 0.766 | 4.02 nM | 0.988 | > 2000 nM | 0.99 | > 16000 nM | 0.988 | > 10000 nM | 0.808 | 8730 nM | 0.97 | > 1020 nM | 0.036 | < 20 nM | 0.938 | > 2560 nM | 0.99 | > 2000 nM | 0.538 | 9.99 nM | 0.988 | > 1000 nM | 0.656 | 404 nM | 0.285 | 341 nM | 0.706 | 55.5 nM | 0.943 | > 10000 nM | – | –
6 | RL (B-cell lymphoma, suspension) | 0.812 | 6 nM | 0.99 | > 2000 nM | 0.984 | > 16000 nM | 0.989 | > 10000 nM | 0.953 | > 20000 nM | 0.98 | > 1020 nM | 0.027 | < 20 nM | 0.99 | > 2560 nM | 0.975 | > 2000 nM | 0.819 | 65.4 nM | 0.985 | > 1000 nM | 0.877 | 2210 nM | 0.282 | 321 nM | 0.99 | > 256 nM | 0.979 | > 10000 nM | – | –
7 | SK-LMS-1 (soft tissue, adherent) | 0.471 | 0.652 nM | 0.902 | > 2000 nM | 0.983 | > 16000 nM | 0.965 | > 10000 nM | 0.837 | 12400 nM | 0.987 | > 1020 nM | 0.022 | < 20 nM | 0.986 | > 2560 nM | 0.74 | 583 nM | 0.782 | 50.8 nM | 0.983 | > 1000 nM | 0.556 | 225 nM | 0.262 | 272 nM | 0.748 | 79.2 nM | 0.861 | 7790 nM | – | –
8 | SKM-1 (haematopoietic neoplasm, suspension) | – | – | 0.983 | > 2000 nM | 0.984 | > 16000 nM | 0.981 | > 10000 nM | – | – | – | – | – | – | – | – | 0.972 | > 2000 nM | – | – | 0.979 | > 1000 nM | – | – | – | – | 0.96 | > 256 nM | 0.735 | 3180 nM | 0.95 | > 2000 nM
9 | SW872 (soft tissue, adherent) | – | – | – | – | 0.986 | > 16000 nM | – | – | 0.978 | > 20000 nM | 0.986 | > 1020 nM | 0.565 | 472 nM | 0.979 | > 2560 nM | 0.98 | > 2000 nM | 0.869 | 99.7 nM | 0.988 | > 1000 nM | 0.632 | 356 nM | 0.365 | 551 nM | 0.571 | 24.5 nM | 0.904 | > 10000 nM | 0.741 | 562 nM

A lower IC50 marks a more sensitive line; where the fit passes the top or lowest dose, that dose stands as a limit. AUC is the area under the same curve over the 256-fold range up to the top dose, as a fraction; values near 1 show little effect. For some assays here: A top dose marked as inferred was calculated from the reported fits. For some assays here: An entry number marks a drug with two screens in the source, which often give different values.
